Test results reported in patent US11344574B2, “Fluoro substituted porphyrin compounds, pharmaceutical compositions comprising the same, and methods of preparing and using the same” (Duke University, priority 2017, dated 2022).

Key:
PC3 cells = test: Clonogenic survival of PC3 cells with MnP alone or with radiation and ascorbate; format: cell-based; conditions: listed as MnTFE-2-PyP^5+
Protocol: Aggressive prostate tumor PC-3 cells were treated overnight with PBS, MnTE-2-PyP^5+ (Mn1), or MnTFE-2-PyP^5+ (Mn3) using doses of 0.1 μM, 0.5 μM, and 1 μM. […] Each sample was serially diluted, and seeded into 6-well plates at 500 cells/well in three technical replicates. The cells were allowed to grow for 11 days then fixed with 70% EtOH and stained in 0.5% crystal violet and 25% methanol. Colonies containing 50 or more cells were counted and reported as the surviving fraction of cells seeded, normalized to plating efficiency of untreated cells at the same density. These experiments were repeated in triplicate and the mean and SEM were reported.
FIG. 3 depicts the results from an examination of the effectiveness of MnTFE-2-PyP^5+ (Mn3, FIG. 1, Formula II) in killing the radiation-resistant prostate cancer cell line (PC3) compared with its non-fluorinated analog, MnTE-2-PyP^5+ (Mn1, FIG. 1)). […] Fluoro porphyrins distribute less in vivo than do non-fluoro analogs (FIG. 6) but seem to have kinetic advantage in producing larger therapeutic effects.

[1] = Blood pressure drop (hypotension) after iv MnP; conditions: given iv
[2] = Levels of Mn porphyrins in tumor, muscle and liver of the sc flank 4T1 mouse study (LCMS/MS); conditions: 2 mg/kg
4T1 breast tumor = test: Mouse flank 4T1 tumor radio- and chemosensitization study, MnP 0.2 mg/kg; format: in vivo; conditions: triple combination MnP 0.2 mg/kg sc + ascorbate + radiation
stroke model = test: Stroke model; format: in vivo
Excerpt: In addition to such problems that control the formation of a variety of compounds in the final preparation, the impact of 3 fluorine atoms at the end of the chains may have a detrimental impact on the synthesis and metallation steps. Two strong electron-withdrawing effects from opposite sides of the oxygen atoms—from the nitrogen atoms and from the fluorine atoms—destabilize the ether linkage and preclude the formation of the porphyrin and its Mn complex. Finally, the design of such a molecule having polar fluorine atoms along with polar oxygen atoms, based on our present knowledge, would end up with reduced lipophilicity and therefore reduced bioavailability. […] However its redox properties allow it to be protective in a stroke model if given intracerebroventricularly.

| Molecule | cytotoxicity towards radiation-resistant prostate cancer cell line (PC3 cells) | blood pressure drop [1] | distribution in tumor, fold less than MnTnBuOE-2-PyP^5+ [2] | tumor growth inhibition (4T1 breast tumor) | protection in a stroke model (stroke model; given intracerebroventricularly) | protection in a stroke model (stroke model; given subcutaneously) |
| --- | --- | --- | --- | --- | --- | --- |
| FCC[n+]1ccccc1C1=C2C=CC3=[N+]2[Mn]24[n]5c1ccc5C(c1cccc[n+]1CCF)=C1C=CC(=[N+]12)C(c1cccc[n+]1CCF)=c1ccc([n]14)=C3c1cccc[n+]1CCF [Mn3, Mn(III) 5,10,15,20-tetra(2-fluoroethylpyridinium-2-yl)porphinato pentachloride] | superior cytotoxicity | no blood pressure drop | ~3 fold |  |  |  |
| Mn(III) ortho N-butoxyethylpyridylporphyrin [Mn2, reference compound] |  | does |  | Strong tumor suppression | protective | does not offer protection |
| MnTnHex-2-PyP^5+ |  |  |  |  |  | does |
